Biological target: T1, recombinant ARMS2 (age-related maculopathy susceptibility 2) (human, UniProt P0C7Q2 1-107)
T1 sequence (looked up): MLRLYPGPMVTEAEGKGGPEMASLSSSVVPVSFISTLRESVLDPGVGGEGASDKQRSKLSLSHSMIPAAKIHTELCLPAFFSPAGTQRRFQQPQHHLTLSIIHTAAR
Assay: cell-based or functional assay

C3b deposition on ARMS2 (500 nM) coated CHO-K1 cells in 20% NHS over 45 min, flow cytometry, compared to cells coated with HSA: 3 fold
B1: properdin (natural protein, human, UniProt P27918 28-469, looked up)
chain: DPVLCFTQYEESSGKCKGLLGGGVSVEDCCLNTAFAYQKRSGGLCQPCRSPRWSLWSTWAPCSVTCSEGSQLRYRRCVGWNGQCSGKVAPGTLEWQLQACEDQQCCPEMGGWSGWGPWEPCSVTCSKGTRTRRRACNHPAPKCGGHCPGQAQESEACDTQQVCPTHGAWATWGPWTPCSASCHGGPHEPKETRSRKCSAPEPSQKPPGKPCPGLAYEQRRCTGLPPCPVAGGWGPWGPVSPCPVTCGLGQTMEQRTCNHPVPQHGGPFCAGDATRTHICNTAVPCPVDGEWDSWGEWSPCIRRNMKSISCQEIPGQQSRGRTCRGRKFDGHRCAGQQQDIRHCYSIQHCPLKGSWSEWSTWGLCMPPCGPNPTRARQRLCTPLLPKYPPTVSMVEGQGEKNVTFWGRPLPRCEELQGQKLVVEEKRPCLHVPACKDPEEEEL

Reference: publication PMC5234120, “Age-related macular degeneration associated polymorphism rs10490924 in ARMS2 results in deficiency of a complement activator” (Journal of Neuroinflammation, 2017)
